The text below walks through data of publication PMC12136788.

The other results are listed elsewhere or left out.

T1: UNK ZnF1-6 (called full-length) (human, UniProt Q9C0B0 30-357)
T1 sequence: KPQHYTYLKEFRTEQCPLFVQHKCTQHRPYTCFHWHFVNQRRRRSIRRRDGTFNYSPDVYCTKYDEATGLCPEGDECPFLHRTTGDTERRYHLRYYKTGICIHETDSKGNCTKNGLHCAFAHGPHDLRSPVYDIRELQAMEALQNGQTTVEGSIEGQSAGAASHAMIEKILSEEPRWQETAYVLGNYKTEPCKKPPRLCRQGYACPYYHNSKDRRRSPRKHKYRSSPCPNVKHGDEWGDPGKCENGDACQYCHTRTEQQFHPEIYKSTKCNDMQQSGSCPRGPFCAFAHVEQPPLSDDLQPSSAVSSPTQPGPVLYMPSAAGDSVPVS

B1: ENSG00000136451:be:win_351|CDS|ENSG00000136451|bound_else_gene|NA|bound_elsewhere_windowed (ssRNA)
RNA: GGGAGUUCUACAGUCCGACGAUCUACCAUCGCUGGGGACAGCAGCCGAACUUCGUUGGUCUCGACCAUUGCAGGCAUCUUGUCAACAGUCACUACAUCUUCCUCGGGCACCAACCCCAGUAGCAGUGCCAGCACCACAGCUAUCAACAGAGGAUUGAGCAUCA
B2: chr16:14644374:14644495:+|CDS|ENSG00000103429|unk|total|mutant (ssRNA)
RNA: GGGAGUUCUACAGUCCGACGAUCAACACAAUGGACCUUGAGAGAGAUGAACCUCUCAAAAGCACCGGCCCUCAGAUUUCUGUCCGUGAAUUUUCUUGCCACUGCUGCUACGACAUCCUGGUUAACCCCACCACCUUGAACUGUCAACAGAGGAUUGAGCAUCA
B3: chr1:11013840:11013957:+|CDS|ENSG00000120948|unk|total|mutant (ssRNA)
RNA: GGGAGUUCUACAGUCCGACGAUCGGCGUGUGGGCUUCGCUACAGGAAUCCAGUGUCUCAGUGUAUGAGAGGUGUCCGGCUGGCCGAAGGAAUUCUGCAUGCCCCAGAUGCUGGCUGGGGAAAUCUGGUGUAUGUUGUCAACUACAACAGAGGAUUGAGCAUCA
B4: chr17:68278117:68278284:-|CDS|ENSG00000108932|unk|FALSE|unique (ssRNA)
RNA: GGGAGUUCUACAGUCCGACGAUCGCUUUGUUCCAAAGCCAAUGUGUAUACUGAAGUGCCUGAUGGAGGAUGGGGCUGGGCGGUAGCUGUUUCAUUUUUCUUCGUUGAAGUCUUCACCUACGGCAUCAUCAAGACAUUUGGUGUCAACAGAGGAUUGAGCAUCA
B5: chr8:143915815:143915916:-|3pUTR|ENSG00000178209|msi1|total|mutant (ssRNA)
RNA: GGGAGUUCUACAGUCCGACGAUCGCCAGGUGCCUUGGAGGGUCCCAAGCUGGGCCCCAGCCCACCCUCCUGUCUUCCCAGGGCCGCCCGCCUGCCAGUCCCCGCUGCACAGGGCAGCUGGGCCCAACCCUGUCUGCCGAGGGCCAACAGAGGAUUGAGCAUCA
B6: chr7:77779054:77779164:+|CDS|ENSG00000187257|unk|FALSE|unique (ssRNA)
RNA: GGGAGUUCUACAGUCCGACGAUCUAAAUUUGAAAAUAGCAACAAAGAUUUAAAGGAAGAAUUGUGCCCUGGAAAUCUAAGUCUAGUUGAUACAAGGCAACACAGUUCAGCACAUUCAAAUCAAGAUAAAAAAGACGAUGACAUCAACAGAGGAUUGAGCAUCA
B7: chr15:90931683:90931944:-|CDS|ENSG00000184508|control|control|control (ssRNA)
RNA: GGGAGUUCUACAGUCCGACGAUCGACAAGACUCUGCCCAAGCUGGAGAGAAAGAGGCUGCAGGUGGAGCAAGCGCCCCACAGUAGCCCCGGGGCCAAACUGGUGAAGCUGGCAGACAAGCUGUACAAUCUGAGGGACCUGAAUCAACAGAGGAUUGAGCAUCA
B8: chr1:17067826:17067927:-|3pUTR|ENSG00000117115|msi1|FALSE|unique (ssRNA)
RNA: GGGAGUUCUACAGUCCGACGAUCCCAGAUUCAUUCCCUGGCUCCAACUGAAAAGACUCAGUUUCAAUCGUUAAAAGUUCCUUUAGGGCCAGAAGAAUAAAUGAAUUAUAAUCCCAUUUUGAAGAACCGAUUUAUAACCAAUGACAACAGAGGAUUGAGCAUCA
B9: chr7:88197266:88197367:+|3pUTR|ENSG00000008277|unk|total|mutant (ssRNA)
RNA: GGGAGUUCUACAGUCCGACGAUCCAAAACAUGUGAUAUCCCUUUAACCUGUGCACAGUCUGGAGGCAGUUUUAUUGAGUGAGCCGUUGAGUGAGAGAACAAAAUGCCCAGCAAAACUUCUGGCCUCCACAGUUUGCUGAUGCACAACAGAGGAUUGAGCAUCA
B10: chr3:122768741:122768856:-|CDS|ENSG00000169087|unk|FALSE|unique (ssRNA)
RNA: GGGAGUUCUACAGUCCGACGAUCACAUGUAAUUACGUAGAAGCUACACUCGAAGAGUUUCUGACCUGGAACUGUGACCAGUCUAGUAUUUCUGGACCAUUUAGAGAUUAUGACCAUUCCAAGUUCUGGGCUUAUGCUGACUAUCAACAGAGGAUUGAGCAUCA
B11: chr17:75064992:75065093:+|3pUTR|ENSG00000180901|msi1|FALSE|unique (ssRNA)
RNA: GGGAGUUCUACAGUCCGACGAUCAGGCGCUUGUCCCUGUCUGCUUUCCUGGGGCAUGCCUGAUCAGCGUGGGCUGGAGCUCCUAGACCAACCCCAGCUUUCUCACCAGGUUCAGCAAGGAGGCCUGGGGGUCAGACACCAAUGCAACAGAGGAUUGAGCAUCA
B12: chr16:67175568:67175669:+|3pUTR|ENSG00000140939|msi1|total|mutant (ssRNA)
RNA: GGGAGUUCUACAGUCCGACGAUCUCCGAGCUCACAGCCUUGGGAAGUGAGACCCGAAGAGGGGAGCAGAAAGGGACCUUGAGCCGACAAAGGCCACACACAUCAUUGUCAUUACUGUUUUAAUUGUCUGGCUUCUCUCUGGACCAACAGAGGAUUGAGCAUCA
B13: ENSG00000070961:be:win_6251|3pUTR|ENSG00000070961|bound_else_gene|NA|bound_elsewhere_windowed (ssRNA)
RNA: GGGAGUUCUACAGUCCGACGAUCCAUCAUUGCCUUUUUUGUGGUUGUAAAUAGACUUACUUGCACUUUGAAGAUGAGUUACUCCUUGUCAUCUUACAAAUAUGUGAUAUGGUAAUUUUCAUAACAGAUGUCAGUUUUGAACCACAACAGAGGAUUGAGCAUCA
B14: chr2:151248206:151248307:-|3pUTR|ENSG00000184898|msi1|FALSE|unique (ssRNA)
RNA: GGGAGUUCUACAGUCCGACGAUCUUUUUUUAAAGCAAAGAUUAAAUUCCCAUGUAAAACCUUCCUCCCUAUACAAAAAAGAAUAGCAGCAUUUUUAUCUUCAAUGACAAAGAAUUGAGUCCAAGAAAAUACUGUAUAAACCUUCAACAGAGGAUUGAGCAUCA
B15: chr8:25429562:25429664:-|3pUTR|ENSG00000104756|unk|total|mutant (ssRNA)
RNA: GGGAGUUCUACAGUCCGACGAUCAGAAAAGCACUCAUUUAACCGAUGCCGGGAAACCCGAUAUUGCUGCCUUUUGAAUGGGGCCGGGGGGUUUACCUGGUUUUAUGACCAGGCACCGUAUCUAUUAUAUUUGCUUUUAAACCGCAACAGAGGAUUGAGCAUCA
B16: chr10:127452233:127452334:+|3pUTR|ENSG00000150760|msi1|FALSE|unique (ssRNA)
RNA: GGGAGUUCUACAGUCCGACGAUCGUAUAUAUGAUGGUUCUUAGAACUUGUUUUAAUUUUUGUGGUCCUUCCGUUUAUUAUAAUAGGCGUCCACCAAUGAUUAUCCAUAUGUGUUCUUAAUUUUUAACUGCUGGAAGUGUUAAACAACAGAGGAUUGAGCAUCA
B17: chrX:74588119:74588220:-|3pUTR|ENSG00000131263|msi1|FALSE|bound_elsewhere (ssRNA)
RNA: GGGAGUUCUACAGUCCGACGAUCUCCGAAAAUGCUGGGAUUACAGGCGUGAGCCACCAUGUCCAGCCAAAGUUGAGGUUUAUUAGUACUAUUAGAAACAAAAUUGAGCAAGUUAAGUUAAAAGUUUGCUGACUUUGUAUCAACCAACAGAGGAUUGAGCAUCA
B18: chr15:91915990:91916091:+|CDS|ENSG00000176463|msi1|total|mutant (ssRNA)
RNA: GGGAGUUCUACAGUCCGACGAUCGUCCUGACCACCCUGGAGCGCCGGUUCAACCUGCAGAGCGCUGACGUGGGUGUGAUCGCCCGCAGCUUCGAGAUCGGGAACCUGGCGCUCAUCCUCUUCGUGAGCUACUUCGGGGCACGCCAACAGAGGAUUGAGCAUCA
B19: chr13:20975083:20975184:-|CDS|ENSG00000150457|msi1|FALSE|unique (ssRNA)
RNA: GGGAGUUCUACAGUCCGACGAUCGCCAGCCCCCUACGUUCCCACCAUCAGCCACCCCAUGGACACCUCGAAUUUCGACCCCGUAGAUGAAGAAAGCCCUUGGAACGAUGCCAGCGAAGGUAGCACCAAGGCCUGGGACACACUCAACAGAGGAUUGAGCAUCA
B20: chr16:16142165:16142266:+|3pUTR|ENSG00000103222|msi1|total|mutant (ssRNA)
RNA: GGGAGUUCUACAGUCCGACGAUCAUUGAUGUGGGGUAAAUAUUAAGGAGAUGGCCUCAUGGGAAUUUGACCUUGACCCGAAACCGAGACUGAGAGUGAGCAACCAGCUGGAAGGUACUAUGCCAGUCCCCGCAGAAAAAUGUGCAACAGAGGAUUGAGCAUCA
B21: chr11:43405833:43405939:+|CDS|ENSG00000052841|unk|FALSE|unique (ssRNA)
RNA: GGGAGUUCUACAGUCCGACGAUCGGCCCAAACCCCUGACUGUUCCAUAACUGACUUCAGAAAAAGCCACACUCUGUCCUACUUAGUCAAAGAAUUAGAGGUUCGCAUGGAUCUGAAAGCCAAAAUGCCAGAUGACCAUGCACGCAACAGAGGAUUGAGCAUCA
B22: ENSG00000070961:be:win_3051|CDS|ENSG00000070961|bound_else_gene|NA|bound_elsewhere_windowed (ssRNA)
RNA: GGGAGUUCUACAGUCCGACGAUCUGUGGUACAGAUAAUAAUUGUGCAGUUUGGUGGAAAACCUUUCAGUUGUUCAGAACUUUCAAUAGAACAGUGGCUAUGGUCAAUAUUCCUAGGAAUGGGAACAUUACUCUGGGGCCAGCUCAACAGAGGAUUGAGCAUCA

In this assay the target is T1, UNK ZnF1-6 (called full-length). Put plainly: nsRBNS (natural sequence RNA bind-n-seq); RBNS binding buffer (assumed for nsRBNS): 25 mM Tris pH 7.5, 150 mM KCl, 3 mM MgCl2, 0.01% Triton X-100, 500 ug/ml BSA, 20 U/ml SUPERase-In, 4 C; UNK is unkempt and MSI1 is Musashi-1; names of the RNAs are library labels; protein concentration not given here; high values mean tight binding.
Molecule B1 registered a binding signal of 0.685 enrichment R. In the case of B2, the binding signal was 0.73 enrichment R. As for B3, the binding signal came to 1.09 enrichment R. In turn, B4 displayed a binding signal of 0.822 enrichment R. B5: the binding signal was found to be 1.04 enrichment R. Turning to B6, the binding signal was 0.676 enrichment R.

Molecule B7 showed a binding signal of 0.675 enrichment R. B8 had a binding signal of 0.557 enrichment R. As for B9, the figure is 0.634 enrichment R; as for B10, 0.406 enrichment R; as for B11, 0.765 enrichment R. In turn, B12 displayed a binding signal of 0.831 enrichment R. As for B13, the binding signal worked out at 0.405 enrichment R. Consider B14, for which the binding signal came to 0.487 enrichment R. Consider B15, for which the binding signal turned out to be 0.998 enrichment R. B16 had a binding signal of 1.5 enrichment R. For B17, the binding signal was 0.995 enrichment R. B18 showed a binding signal of 0.82 enrichment R. Under B19 stands 1.17 enrichment R. Under B20 stands 0.757 enrichment R; under B21, 1.07 enrichment R. The molecule B22 registered a binding signal of 0.678 enrichment R.
